According to PubChem BioAssay AID463173 (ICCB-Longwood Screening Facility, Harvard Medical School, 2010):
Among all 52,000 compounds or so, about 4,300 (8.3%) were called active. Rule as the data show it: active = survival mostly below about 52% (no sharp cut-off); inactive = mostly above about 56%. Some of the results follow.

Each compound was assayed on DeltatarO mutant (assay: growth inhibition of S. aureus wild type versus tarO mutant, primary screen, teichoic acid synthesis inhibitors, RN4220, OD600 (AID 463173)). Settings: OD600, 18 h, hits give low values, screened at 18.75 µg/mL (by protocol).

Row | SMILES | survival
1 | CSc1nc(-c2ccco2)nn1C(=O)c1ccc(C)cc1 | inactive: 65%
2 | CSc1ncc(C(=O)N2CCN(c3cccc(Cl)c3)CC2)c(C)n1 | active: 0%
3 | CCOc1ccc(CCNC(=O)Cn2nnc(-c3ccccc3Cl)n2)cc1OCC | inactive: 70%
4 | Cc1c(C)n(Cc2ccc(F)cc2)c2ccc(C(=O)NCc3ccco3)cc12 | inactive: 87%
5 | O=C(NCCN1CCN(c2cccc(Cl)c2)CC1)Nc1ccccc1C(F)(F)F | inactive: 109%
6 | O=C(CSc1ncc(-c2ccccc2)[nH]1)Nc1ccc(Cl)cc1 | active: 36%
7 | Cc1ccc(CNc2nc(-c3ccco3)nn2S(=O)(=O)c2ccc3ccccc3c2)cc1 | inactive: 115%
8 | COc1ccc(OCC(=O)NCCO)cc1 | inactive: 100%
9 | CC(C)COc1ccc(C(=O)N2CCCCC2CCN2CCCCC2)cc1 (stereo not given) | inactive: 79%
10 | Cc1cc(NC(=O)CSc2nc(C3CCCCC3)nc3sc(C)c(C)c23)no1 | inactive: 90%
11 | Cc1cccc(-c2nnn3c2nc(NCc2ccc4c(c2)OCO4)c2ccccc23)c1 | inactive: 71%
12 | COc1cccc2c1ncc1c(-c3ccc(C)cc3)nn(-c3ccc(F)cc3)c12 | inactive: 80%
13 | CC1Cc2ccccc2N1C(=O)CSc1nnc(CSc2ncccn2)n1C (stereo not given) | inactive: 111%
14 | Cc1oc2ccc(O)c(CN3CCCC3)c2c1C(=O)Nc1ccc(C(C)C)cc1 | inactive: 68%
15 | C#CCOc1ccc(-c2nnc(Nc3ccc(NC(C)=O)cc3)c3ccccc23)cc1 | inactive: 60%
16 | Cc1ccc(Cl)cc1N1CCN(C(=O)c2c(C)oc3ncnc(N4CCCCC4)c23)CC1 | active: -4%
17 | CCc1cc(C(=O)Nc2sc(C)c(CC)c2C#N)no1 | active: 35%
18 | CN(C)c1ccc(-c2cc(-c3ccccc3)c(C#N)c(N)n2)cc1 | inactive: 105%
19 | CC1CCc2sc3ncnc(NCCCN(C)C)c3c2C1 (stereo not given) | inactive: 117%
20 | CCc1ccc(CN2CCc3nc(N4CCN(c5ccccc5F)CC4)ncc3C2)cc1 | inactive: 54%
21 | CCCCOc1cccc(C(=O)Nc2cc(NC(=O)c3ccco3)ccc2OC)c1 | active: 23%
22 | COc1cccc(NC(=O)CCc2c(C)nc3nc(CNC(=O)c4cccc(F)c4)nn3c2C)c1 | inactive: 76%
23 | Cc1ccc(CNC(=O)c2c(O)nc3cc(C)ccn3c2=O)cc1 | inactive: 76%

Row | SMILES | survival
24 | Cc1ccc2c(c1)-c1c(cnc3cc(-c4ccc(F)cc4)nn13)CO2 | inactive: 72%
25 | CCc1ccc(C2=C(C)C(N3CCC(C(=O)NCc4ccccc4)CC3)=NS2(=O)=O)cc1 | inactive: 89%
26 | COc1ccc(-c2cnc(C)o2)cc1S(=O)(=O)Nc1c(C)cc(C)cc1C | inactive: 71%
27 | CCC(CC)N1CCN(S(=O)(=O)CC)CC1 | inactive: 86%
28 | CC(c1ccccc1)n1cc2c(c1-c1ccccc1Br)c(=O)n(C)c(=O)n2C (stereo not given) | inactive: 82%
29 | CN(C)c1ccc(CN(CC2CCCO2)C(=O)c2ccc(Br)cc2)cc1 (stereo not given) | inactive: 64%
30 | Cc1ccc2[nH]c3c(=O)n(CC(=O)N4CCN(c5cccc(C(F)(F)F)c5)CC4)ncc3c2c1 | inactive: 78%
31 | CCOc1ccc(N2C(=O)N(Cc3c(F)cccc3Cl)c3ccccc3S2(=O)=O)cc1 | inactive: 91%
32 | CCCN1C(=O)/C(=c2\sc3n(c2=O)C(c2ccccc2)C(C(=O)OC)=C(C)N=3)c2ccccc21 (stereo not given) | inactive: 74%
33 | COc1cccc(CNC(=O)CN2C(=O)CSc3c2c(C)nn3-c2ccccc2)c1 | inactive: 94%
34 | Cc1ccc(-n2c(=O)c3ccc(C(=O)NCc4ccccc4Cl)cc3n(CC(=O)Nc3cccc(F)c3)c2=O)cc1 | inactive: 75%
35 | Cc1ccc2[nH]c(CSc3nnc(COc4ccccc4C)n3C)cc(=O)c2c1 | inactive: 67%
36 | CCCCN(CCCC)CCNC(=O)c1cc(-c2cccnc2)nc2ccc(S(=O)(=O)N3CCC(C)CC3)cc12 | inactive: 96%
37 | CCOc1ccc2nc(N3CCCC(C(=O)Nc4cccc(Cl)c4C)C3)sc2c1 (stereo not given) | inactive: 65%
38 | CCc1cc2c(cc3c(=O)n(CC(=O)N4CCCCC4)ncn32)s1 | inactive: 109%
39 | Cc1ccc(Cl)cc1NC(=O)CN1C(=O)COc2ccc(S(=O)(=O)N3CCOCC3)cc21 | inactive: 101%
40 | CCCCn1cc(S(=O)(=O)c2ccc(F)cc2)c(=O)c2ccccc21 | inactive: 94%
41 | COc1ccccc1CNC(=O)c1ccc(-c2nc(CS(=O)c3ccccc3)c(C)o2)cc1 (stereo not given) | inactive: 89%
42 | Cc1cc(F)ccc1NC(=O)C1CCCN(S(=O)(=O)c2ccc3c(c2)CCCC(=O)N3)C1 (stereo not given) | inactive: 65%
43 | Cc1cnc2c(c1SCC(=O)Nc1ccc(F)cc1F)c(=O)n(C)c(=O)n2C | inactive: 74%
44 | COc1ccc(Cn2c(SCC(N)=O)nc3c(sc4ccccc43)c2=O)cc1 | inactive: 88%
45 | COc1ccc(S(=O)(=O)c2c(Nc3ccc(C)cc3)sc(C(=O)c3ccc4c(c3)OCO4)c2N)cc1 | inactive: 100%
46 | CC1CCCCN1C(=O)CSc1nc(C2CC2)nc2ccccc12 (stereo not given) | inactive: 82%

Row | SMILES | survival
47 | COc1cc(OC)c(NC(=O)Cn2cnc3sc(C)c(S(=O)(=O)N4CCN(C)CC4)c3c2=O)cc1Cl | inactive: 157%
48 | Cc1ccc(S(=O)(=O)c2nc(-c3ccco3)oc2SCC(C)C)cc1 | active: 48%
49 | COc1ccc2ncc3c(-c4ccc(C)c(C)c4)nn(CC(=O)NC4CCCCC4)c3c2c1 | inactive: 98%
50 | O=C(COCc1cc(-c2cccs2)on1)Nc1ccc(OC(F)(F)F)cc1 | inactive: 106%
51 | CCCCOc1ccc(NC(=O)Cn2nnnc2-c2ccccc2F)cc1 | inactive: 77%
52 | Cc1cc2c(cc1C)NC(CC(=O)Nc1ccccc1SC(F)(F)F)C(=O)N2 (stereo not given) | inactive: 81%
53 | COC(=O)NCc1c(C)nn(-c2ccccc2)c1-n1cccc1 | inactive: 96%
54 | COc1ccc(CNC(=O)c2cc3c(s2)-c2c(C)cccc2OC3)cc1 | inactive: 87%
55 | CCOC(=O)c1oc2c(c1C)-c1nn(Cc3ccccc3Cl)cc1CC2 | active: 38%
56 | c1ccc(CN2CCCC2)nc1 | inactive: 91%
57 | CCc1ccccc1NC(=O)CN1C(=O)c2cccnc2Oc2ccc(Cl)cc21 | inactive: 104%
58 | CCOc1ccc(Br)cc1CNCCSc1nnnn1-c1ccccc1 | active: 23%
59 | CCc1ccc(NC(=O)c2nn(-c3ccc(C)cc3)c(=O)n(C)c2=O)cc1 | inactive: 77%
60 | CC(C)(C)OC(=O)N1CCC(c2c(C(=O)Nc3ccc4c(c3)OCCO4)cnn2-c2ccccc2)CC1 | inactive: 96%
61 | c1ccc2c3c([nH]c2c1)-c1nonc1CC3 | inactive: 85%
62 | CC1CCCC(C)N1C(=O)c1cc2sccc2n1Cc1ccc(F)cc1 (stereo not given) | inactive: 86%
63 | COc1ccc(CNc2cc(-c3ccc(OC)cc3)nc3nncn23)cc1 | inactive: 61%
64 | Cc1ccc(NC(=O)Cn2c(=O)n(CCC(=O)NCc3ccc4c(c3)OCO4)c(=O)c3sccc32)c(C)c1 | active: 87%
65 | Cn1c(=O)n(-c2cccc(Cl)c2)c(=O)c2sc3ccccc3c21 | inactive: 74%
66 | Cc1cc(NC(=O)Cn2nc(C)n3cccc3c2=O)ccc1Br | inactive: 88%
67 | CCOC(=O)N1CCC2(CC1)OC(=O)C(C)=C2C(=O)NCc1cccc(OC)c1 | inactive: 135%
68 | COc1ccc(NC(=O)CC2C(=O)N(c3ccc(C)cc3)C(=O)N2Cc2cccnc2)cc1 (stereo not given) | inactive: 102%
69 | CNC(=O)c1sc2ncccc2c1-n1cccc1 | inactive: 124%

Row | SMILES | survival
70 | CCCS(=O)(=O)N1CC(=O)N(c2ccccc2C)C(C)(C(=O)NC2CCCC2)C1 (stereo not given) | inactive: 73%
71 | Cc1cccc(-n2ncc(C(=O)NCc3ccccn3)c2C2CCN(C(=O)OC(C)(C)C)CC2)c1 | inactive: 83%
72 | CCCCN1C(=O)CN(C2CCCCC2)C(=O)C1c1ccc(OC(C)C)c(OC)c1 (stereo not given) | inactive: 91%
73 | O=C(CN1CCCCC1)N/N=C/c1ccc(Cl)cc1 | inactive: 72%
74 | CCN1CCN(Cc2c(O)ccc3c(C)c(-c4ccccc4)c(=O)oc23)CC1 | inactive: 78%
75 | COc1ccc2cc(CN(CC3COCCO3)S(=O)(=O)c3c(C)cc(C)cc3C)c(=O)[nH]c2c1 (stereo not given) | inactive: 72%
76 | Cc1cccc(NC(=O)c2oc3ccccc3c2NC(=O)c2cc(=O)c3cc(Cl)ccc3o2)c1 | active: 43%
77 | COc1ccc(C)cc1NC(=O)CSc1ccc(-c2ccccn2)nn1 | inactive: 28%
78 | COc1ccc(CNC(=O)C2CCCN2)cc1OC (stereo not given) | inactive: 70%
79 | COc1ccccc1C(=O)Nc1c(C(=O)N(C)c2ccccc2)sc2nc(C)cc(C)c12 | inactive: 58%
80 | O=C1CCCN1C(=O)CCC(=O)N1CCCC1=O | inactive: 100%
81 | CCOC(=O)c1c(C(F)(F)F)cc(-c2ccccc2)nc1C | inactive: 98%
82 | CCOc1ccc(C(=O)Nc2cc(-c3cn4cccnc4n3)ccc2C)cc1OCC | inactive: 62%
83 | COc1ccc(CCNC(=O)c2c(C)oc3ncn(CC(C)C)c(=O)c23)cc1OC | inactive: 81%
84 | CCn1cc(C(=O)NCCc2ccc(C)cc2)c(=O)c2cc(S(=O)(=O)N3CCCCC3)ccc21 | inactive: 122%
85 | Cc1cc(C)cc(NC(=O)C2CCC(CNS(=O)(=O)c3ccc4c(c3)C(C)(C)C(=O)N4C)CC2)c1 (stereo not given) | inactive: 102%
86 | Cn1c(=O)c2sccc2n2c(CCC(=O)NCc3ccccc3Cl)nnc12 | inactive: 185%
87 | COc1ccc(CNC(=O)C2CCN(C(=O)N3CC(C)Oc4ccc(C)cc43)CC2)cc1 (stereo not given) | inactive: 105%
88 | CN(Cc1ccccc1)C(=O)C1CCN(S(=O)(=O)c2ccc3nc4c(c(C(=O)O)c3c2)CCCC4)CC1 | inactive: 66%
89 | O=C(CCS(=O)(=O)c1cc(Br)cc2c1N(C(=O)C1CC1)CC2)Nc1ccc(C(F)(F)F)cc1 | inactive: 93%
90 | O=C(NC1CCCC1)C1C2C=CC(C2)C1C(=O)N1CCOCC1 (stereo not given) | inactive: 102%
